Results: PubChem BioAssay AID1476 (National Center for Advancing Translational Sciences (NCATS), 2009)
The whole screen tested about 200,000 compounds, of which about 4,500 (2.2%) were called active. Inconclusive means that the source gave no clear call. Such entries were picked first, then a sample of the others. Calls follow the shape of the dose curve; as a rule, active = well fitted inhibition curve with a large enough effect; inconclusive = small, poorly fitted or top-dose-only effect, or effect the other way; inactive = flat fitted curve, though single readings scatter. Potencies of inconclusive entries are doubtful fits and often do not repeat.

Target: Cruzipain (Trypanosoma cruzi) (UniProt P25779)
Assay: qHTS Assay for Promiscuous and Specific Inhibitors of Cruzain (without detergent); also: nearly all actives have a fitted effect of over 40% in size;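 as to max response, negative = inhibition: plate controls were enzyme without inhibitor for no effect and buffer without enzyme for full effect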
Conditions: purified cruzain, Z-FR-AMC fluorescence, no detergent
Summary of the method: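 Purified cruzain at 1.5 nM, pre-incubated 15 min with compound at room temperature in 100 mM sodium acetate pH 5.5, 5 mM DTT, 0.00005% Triton X-100. Reaction started with 2 uM Z-FR-AMC; AMC fluorescence increase over 60 s gives rate.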
Potency is read from the fitted curve at half-maximal effect; tags tell the direction and shape of the fitted curve.

Sequence of UniProt P25779 (P25779 whole entry, looked up): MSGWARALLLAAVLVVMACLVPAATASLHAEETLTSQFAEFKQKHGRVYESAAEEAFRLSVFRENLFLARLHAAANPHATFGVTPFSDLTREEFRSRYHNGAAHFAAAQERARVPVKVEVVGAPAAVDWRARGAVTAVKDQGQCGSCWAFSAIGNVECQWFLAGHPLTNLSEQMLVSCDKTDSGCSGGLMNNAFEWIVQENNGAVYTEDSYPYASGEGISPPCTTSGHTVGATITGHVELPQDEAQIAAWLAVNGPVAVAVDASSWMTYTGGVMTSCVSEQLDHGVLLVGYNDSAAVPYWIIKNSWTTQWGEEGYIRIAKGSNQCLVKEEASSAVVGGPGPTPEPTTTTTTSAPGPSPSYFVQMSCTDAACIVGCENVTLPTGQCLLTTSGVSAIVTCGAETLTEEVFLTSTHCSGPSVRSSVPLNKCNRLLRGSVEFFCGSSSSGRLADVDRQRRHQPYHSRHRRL

Row | SMILES | max response, negative = inhibition | Potency
1 | Cn1c(=O)c2c([nH]c(=O)n2Cc2ccc(Cl)cc2Cl)n(C)c1=O | inactive: -3.59% | –
2 | CC(=O)c1cccc(NC(=O)c2cccn(Cc3cccc(C)c3)c2=O)c1 | – | inconclusive: 39.8 µM [activator, single point]
3 | O=C(Oc1ccc(F)cc1)c1nc(SCc2ccccc2F)ncc1Cl | inactive: -4.81% | –
4 | Cc1ccc(-n2cc(-c3ccccc3)[nH]c2=O)cc1F | – | inconclusive: 39.8 µM [inhibitor, single point]
5 | COc1cccc(CNC(=O)c2cc3c(s2)-c2c(C)cccc2OC3)c1 | – | inconclusive: 39.8 µM [inhibitor, single point]
6 | Cc1ccc(C)c(OCCn2cc(C(=O)c3ccco3)c3ccccc32)c1 | – | inconclusive: 15.8 µM [activator, partial curve, poor fit]
7 | CCc1cc2cc(C)ccc2nc1SCC(=O)N1CCN(C(=O)c2ccco2)CC1 | – | inconclusive: 39.8 µM [activator, single point]
8 | CC(C)Nc1oc(-c2cccc3ccccc23)nc1C#N | – | inconclusive: 20 µM [activator, partial curve]
9 | CCOC(=O)c1cnn(-c2cc(C)nc3c(-c4ccccc4)c(C)nn23)c1N | – | inconclusive: 39.8 µM [activator, single point]
10 | COC(=O)c1c(NC(=O)CN2CCN(S(=O)(=O)c3ccccc3)CC2)sc2c1CCC(C)C2 (stereo not given) | – | inconclusive: 10 µM [inhibitor, partial curve]
11 | OCCOCCNc1ncnc2c1cnn2-c1ccccc1 | – | inconclusive: 39.8 µM [activator, single point]
12 | O=C(CSc1nnc2n1CCCN2C(=S)Nc1ccc(Cl)cc1)c1ccccc1 | – | inconclusive: 39.8 µM [inhibitor, single point]
13 | CC(C)(C)C(=O)NCCc1nc2ccccc2n1CCCCOc1ccc(Cl)cc1 | – | inconclusive: 31.6 µM [activator, single point]
14 | NC(=O)CC[C@H](NC(=O)OCc1ccccc1)C(=O)OCc1ccc(Cl)cc1 | – | inconclusive: 39.8 µM [activator, single point]
15 | COc1ccc(C(=O)OCC(=O)c2cc(OC)ccc2OC)c(OC)c1 | – | inconclusive: 39.8 µM [activator, single point]
16 | Cc1cc(C)cc(S(=O)(=O)Nc2cccc(-c3ccc(N4CCOCC4)nn3)c2)c1 | – | inconclusive: 39.8 µM [activator, single point]
17 | COc1ccc(OCCNc2cc(N3CCCCC3)ccc2[N+](=O)[O-])cc1 | – | inconclusive: 39.8 µM [inhibitor, single point]
18 | Cc1ccc(Cn2c(C(=O)O)c(CNC3CCCCCC3)c3ccc(C)cc32)cc1 | – | inconclusive: 0.158 µM [inhibitor, single point]
19 | COc1ccc(Cn2c(C(=O)O)c(CNCCc3cccs3)c3ccc(C)cc32)cc1 | inactive: 9.66% | –
20 | COc1ccccc1CNC(=O)c1ccc2c(c1)N(Cc1cccc(Cl)c1)C(=O)c1ccccc1S2(=O)=O | – | inconclusive: 25.1 µM [inhibitor, partial curve, poor fit]

Row | SMILES | max response, negative = inhibition | Potency
21 | Cc1cccc(Nc2nc(N)nc(CC(=O)CSc3ccc(Cl)cc3)n2)c1 | – | inconclusive: 39.8 µM [inhibitor, single point]
22 | COC(=O)c1ccccc1NC(=O)c1c(NC(=O)c2ccco2)sc2c1CCC(C(C)(C)C)C2 (stereo not given) | – | inconclusive: 1.58 µM [inhibitor, full curve, poor fit]
23 | CCCN(C(=O)c1noc2c1COc1ccc(C)cc1-2)c1ccc(Cl)c(Cl)c1 | inactive: 18.4% | –
24 | CCOC(=O)c1ccccc1OCc1cc(/C=N/n2cnnc2)ccc1OC | – | inconclusive: 25.1 µM [activator, single point]
25 | O=c1c(-c2cc(F)cc(F)c2)nc2cncnc2n1Cc1ccccc1Cl | – | active: 25.1 µM
26 | Cc1ccc2c(CC(=O)Nc3ccc(N4CCN(C)CC4)cc3C)coc2c1 | – | active: 25.1 µM
27 | Cn1c(C(=O)Nc2ccc3c(c2)OCCO3)cc2sccc21 | – | inconclusive: 25.1 µM [inhibitor, single point]
28 | CN(C(=O)CSc1cn(CC(=O)N2CCOCC2)c2ccccc12)c1ccccc1 | – | inconclusive: 39.8 µM [activator, single point]
29 | Cc1ccc(C)c(CN2C(=O)C3CCCN3c3ccc(S(=O)(=O)N4CCOCC4)cc32)c1 (stereo not given) | – | inconclusive: 10 µM [inhibitor, partial curve]
30 | COc1ccc(-c2cc(C(=O)Nc3c(C)nn(Cc4ccc(C)cc4)c3C)no2)cc1OC | – | inconclusive: 20 µM [activator, partial curve]
31 | CCOC(=O)CNC(=O)CSc1ncnc2c1cnn2-c1ccc(Cl)cc1 | – | inconclusive: 39.8 µM [inhibitor, single point]
32 | CSc1ccc(C(=S)N2CCN(C(c3ccccc3)c3ccccc3)CC2)cc1 | – | active: 3.98 µM
33 | CS(=O)(=O)Nc1cccc(-c2cc(Nc3ccccc3)ncn2)c1 | inactive: 1.91% | –
34 | CC1=C(C#N)C(c2cn(-c3ccccc3)nc2-c2cccs2)C(C#N)=C(C)N1 | – | inconclusive: 31.6 µM [inhibitor, single point]
35 | Cc1ccc(-c2nc3ccccc3o2)cc1NC(=S)NC(=O)/C=C/c1ccco1 | – | inconclusive: 31.6 µM [inhibitor, single point]
36 | CCc1cccc(CC)c1NC(=O)CN1C(=O)C(=O)c2ccccc21 | – | inconclusive: 39.8 µM [activator, single point]
37 | Cn1c(=O)c(C(=O)Nc2ncccc2O)c(O)c2ccccc21 | – | inconclusive: 25.1 µM [inhibitor, single point]
38 | Cc1ccc(Nc2nnc(-c3ccc(C)c(S(=O)(=O)NCc4nc5ccccc5[nH]4)c3)c3ccccc23)cc1 | – | inconclusive: 39.8 µM [inhibitor, single point]
39 | C=CCc1cccc2cc(C(=O)N3CCN(C(=O)c4ccco4)CC3)c(=O)oc12 | – | inconclusive: 25.1 µM [inhibitor, single point]
40 | Cc1ccc(-c2nc(SCC(=O)NCc3ccco3)c3c(=O)n(C)c(=O)n(C)c3n2)cc1 | inactive: -4.46% | –
